The list shows a part of the results. The full chains were built here from the parent and the listed change. Inactive controls read about 0.05.
B1: TEV protease; numbered along this chain (parent)
chain: MGESLFKGPRDYNPISSSICHLTNESDGHTTSLYGIGFGPFIITNKHLFRRNNGTLVVQSLHGVFKVKDTTTLQQHLVDGRDMIIIRMPKDFPPFPQKLKFREPQREERICLVTTNFQTKSMSSMVSDTSCTFPSGDGIFWKHWIQTKDGQCGSPLVSTRDGFIVGIHSASNFTNTNNYFTSVPKNFMELLTNQEAQQWVSGWRLNADSVLWGGHKVFMVKPEEPFQPVKEATQL

Variants of: B1
Experiment: raw area under fraction-flipped curve 0-4 h after induction (AUC4h, not background-subtracted), DNA-recorder readout of cleavage of the substrate (dimensionless); higher = more cleavage of the substrate by the protease variant
Conditions: temperature: 34 °C; time window: 0-4 h after rhamnose induction
Procedure: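 In vivo DNA recorder in E. coli TOP10(DE3) ΔrhaA at 34 °C. Each TEVp single-site mutant (parent TEVp 0) is paired with a single-site variant of the 7-mer TEVs (canonical ENLYFQ|S). The substrate sits between flexible linkers in a Bxb1-sfGFP-TEVs-SsrA fusion, so cleavage stabilises Bxb1 and speeds flipping of a recombination array, read by NGS. The value is the raw area under the fraction-flipped curve over 0-4 h after rhamnose induction (AUC4h), with ≥20 reads per time point. It is not background-subtracted; inactive controls average about 0.047.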
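Note: Bxb1 expression induced with 0.2% (w/v) L-rhamnose at OD600 near 0.5, cultures sampled hourly, flipped fraction per protease–substrate barcode pair counted by paired-end Illumina sequencing.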

Row | Variant | area with substrate ENLYFQA | area with substrate ENLYFQC | area with substrate ENLYFQD | area with substrate ENLYFQG | area with substrate ENLYFQK | area with substrate ENLYFQL | area with substrate ENLYFQM | area with substrate ENLYFQN | area with substrate ENLYFQR | area with substrate ENLYFQS | area with substrate ENLYFQT | area with substrate ENLYFQW | area with substrate ENLYFQY | area with substrate ENLYFQH | area with substrate ENLYFQI | area with substrate ENLYFQF | area with substrate ENLYFQV | area with substrate ENLYFQP | area with substrate ENLYFQQ | area with substrate ENLYFQE
1 | MGESLFKGPRDYNPISSSICHLTNESDGHTTSLYGIGFGPFIITNKHLFRRNNGTLVVQSLHGVFKVKDTTTLQQHLVDGRDMIIIRMPKDFPPFPQKLKFREPQREERICLVTTNFQTKSMSSMVSDTSCTFPDGDGIFWKHWIQTKDGQCGSPLVSTRDGFIVGIHSASNFTNTNNYFTSVPKNFMELLTNQEAQQWVSGWRLNADSVLWGGHKVFMVKPEEPFQPVKEATQL [S135D] | 0.0817 | 0.106 | 0.0662 | 0.0826 | 0.0602 | 0.0457 | 0.0717 | 0.0707 | 0.0673 | 0.0975 | 0.0607 | 0.0679 | 0.0509 | – | – | – | – | – | – | –
2 | MGESLFKGPRDYNPISSSICHLTNESDGHTTSLYGIGFGPFIITNKHLFRRNNGTLVVQSLHGVFKVKDTTTLQQHLVDGRDMIIIRMFKDFPPFPQKLKFREPQREERICLVTTNFQTKSMSSMVSDTSCTFPSGDGIFWKHWIQTKDGQCGSPLVSTRDGFIVGIHSASNFTNTNNYFTSVPKNFMELLTNQEAQQWVSGWRLNADSVLWGGHKVFMVKPEEPFQPVKEATQL [P89F] | 0.04 | 0.0731 | 0.0243 | 0.0721 | – | 0.0539 | – | 0.0554 | – | 0.0685 | 0.0441 | – | – | 0.0287 | 0.0611 | – | – | – | – | –
3 | MGESLFKGPRDYNPISSSICHLTNESDGHTTSLYGIGFGPFIITNKHLFRRNNGTLVVQSLHGVFKVKDTTTLQQHLVDGRDMIIIRMPKDFPPFPQKLKFREPQREERICLVTTNFQTKSMSSMVSDTSCTFPSGDGIFWKHWIQTKDGQCGSPLVSTRDGFIVGFHSASNFTNTNNYFTSVPKNFMELLTNQEAQQWVSGWRLNADSVLWGGHKVFMVKPEEPFQPVKEATQL [I167F] | 0.0799 | 0.101 | 0.0592 | 0.0914 | 0.0611 | 0.0594 | – | 0.055 | 0.0688 | 0.0829 | 0.0533 | 0.055 | 0.045 | 0.0732 | 0.0591 | 0.0556 | 0.068 | – | – | –
4 | MGESLFKGPRDYNPISSSICHLTNESDGHTTSLYGIGFGPFIITNKHLFRRNNGTLVVQSLHGVFKVKDTTTLQQHLVDGRDMIIIRMPKDTPPFPQKLKFREPQREERICLVTTNFQTKSMSSMVSDTSCTFPSGDGIFWKHWIQTKDGQCGSPLVSTRDGFIVGIHSASNFTNTNNYFTSVPKNFMELLTNQEAQQWVSGWRLNADSVLWGGHKVFMVKPEEPFQPVKEATQL [F92T] | 0.108 | – | – | – | – | 0.0866 | 0.0779 | 0.0962 | – | 0.1 | – | – | – | 0.0622 | 0.0581 | 0.0748 | – | – | – | –
5 | MGESLFKGPRDYNPISSSICHLTNESDGHTTSLYGNGFGPFIITNKHLFRRNNGTLVVQSLHGVFKVKDTTTLQQHLVDGRDMIIIRMPKDFPPFPQKLKFREPQREERICLVTTNFQTKSMSSMVSDTSCTFPSGDGIFWKHWIQTKDGQCGSPLVSTRDGFIVGIHSASNFTNTNNYFTSVPKNFMELLTNQEAQQWVSGWRLNADSVLWGGHKVFMVKPEEPFQPVKEATQL [I36N] | 0.0658 | 0.0379 | 0.0327 | 0.0618 | 0.0449 | 0.0396 | 0.0586 | 0.0518 | 0.049 | 0.0689 | 0.0423 | 0.0528 | 0.0689 | 0.0429 | 0.0451 | 0.0631 | – | 0.0528 | 0.0553 | –
6 | MGESLFKGPRDYNPISSSICHLTNESDGHTTSLYGIGFGPFIITNKHLFRRNNGTLVVQSLHGVFKVKDTTTLQQHLVDGRDMIIIRMPKDFPPFPQKLKFREPQREERICLVTTNFQTKSMSSMVSDTSCTFPSGDGIFWKHWIQTKDGQCGSPLVSTRDGFIVGIHNASNFTNTNNYFTSVPKNFMELLTNQEAQQWVSGWRLNADSVLWGGHKVFMVKPEEPFQPVKEATQL [S169N] | 0.0632 | 0.112 | – | 0.0569 | 0.0595 | 0.0658 | 0.0559 | 0.0372 | 0.0599 | 0.0616 | 0.0576 | 0.0634 | 0.0553 | – | – | 0.0355 | – | 0.0462 | 0.0625 | 0.0574
7 | MQESLFKGPRDYNPISSSICHLTNESDGHTTSLYGIGFGPFIITNKHLFRRNNGTLVVQSLHGVFKVKDTTTLQQHLVDGRDMIIIRMPKDFPPFPQKLKFREPQREERICLVTTNFQTKSMSSMVSDTSCTFPSGDGIFWKHWIQTKDGQCGSPLVSTRDGFIVGIHSASNFTNTNNYFTSVPKNFMELLTNQEAQQWVSGWRLNADSVLWGGHKVFMVKPEEPFQPVKEATQL [G2Q] | 0.0906 | 0.141 | 0.0639 | 0.111 | 0.0685 | 0.0644 | – | 0.0801 | 0.0535 | 0.116 | 0.0679 | – | – | 0.074 | 0.0825 | – | 0.0625 | 0.0655 | 0.0752 | –
8 | MGESLFKGPRDYNPISSSICHLTNESDGHTTSLYGIGFGPFIITNKHLFRRNNGTLVVQSLHGVFKVKDTTTLQQHLVDGRDMIIIRMPKDFPPFPQKLKFREPQREERICLVTTNFQTKSMSSMVSDTSCTFPSGDGIFWKHWIQTKDGQCGSPLVSTRDGFIVGIHSASNFTNTNNYITSVPKNFMELLTNQEAQQWVSGWRLNADSVLWGGHKVFMVKPEEPFQPVKEATQL [F180I] | 0.0657 | 0.0653 | – | 0.0629 | 0.0533 | 0.042 | 0.0512 | 0.0473 | 0.0561 | 0.0628 | 0.0566 | – | 0.0593 | – | 0.0519 | – | 0.0558 | – | – | –
9 | MGESLFKGPRDYNPISSSICHLTNESDGHTTSLYGIGFGPFIITNKHLFRRNNGTLVVQSLHGVFKVKDTTTLQQHLVDGRDMIIIRMPKDFPPFPQKLKFREPQREERICLVTTNFQTKSMSSMVSDTSCTFPSGDGIFWKHWIQTKDGQCGSPLVSTRDGFIVGIHSASNFTNTNNYFTSVPKNFMELLTNQEAQQWVPGWRLNADSVLWGGHKVFMVKPEEPFQPVKEATQL [S201P] | 0.0626 | 0.0672 | 0.0624 | 0.0582 | 0.0691 | 0.0387 | – | 0.0456 | 0.0379 | 0.0669 | – | 0.0537 | 0.0519 | 0.0693 | – | – | – | – | 0.0632 | –
10 | MGESLFKGPIDYNPISSSICHLTNESDGHTTSLYGIGFGPFIITNKHLFRRNNGTLVVQSLHGVFKVKDTTTLQQHLVDGRDMIIIRMPKDFPPFPQKLKFREPQREERICLVTTNFQTKSMSSMVSDTSCTFPSGDGIFWKHWIQTKDGQCGSPLVSTRDGFIVGIHSASNFTNTNNYFTSVPKNFMELLTNQEAQQWVSGWRLNADSVLWGGHKVFMVKPEEPFQPVKEATQL [R10I] | 0.0741 | 0.119 | 0.0657 | – | 0.0647 | – | 0.0879 | 0.0818 | 0.0578 | 0.0956 | 0.0349 | – | – | – | 0.0562 | 0.0819 | – | – | – | –
